Kd data for one molecule are collected here from paper PMC10484922 (2023).

The target of the assay is T1, Interleukin-1R1(21–337)-His6 (human, UniProt P14778 21-337).
T1 chain: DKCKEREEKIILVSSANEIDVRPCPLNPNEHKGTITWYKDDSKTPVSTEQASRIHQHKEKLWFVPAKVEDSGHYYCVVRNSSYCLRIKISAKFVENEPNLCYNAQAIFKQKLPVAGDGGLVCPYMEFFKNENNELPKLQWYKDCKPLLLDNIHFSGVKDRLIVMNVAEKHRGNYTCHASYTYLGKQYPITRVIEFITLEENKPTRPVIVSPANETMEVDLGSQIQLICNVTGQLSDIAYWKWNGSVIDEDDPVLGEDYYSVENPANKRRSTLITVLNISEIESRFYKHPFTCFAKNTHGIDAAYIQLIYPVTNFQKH
In words: SPR. A general note: In SPR one partner is held on a chip, and binding of the other changes the refractive index at the surface.

B1: hIL-1β^V47A-His6 (ligand)
chain: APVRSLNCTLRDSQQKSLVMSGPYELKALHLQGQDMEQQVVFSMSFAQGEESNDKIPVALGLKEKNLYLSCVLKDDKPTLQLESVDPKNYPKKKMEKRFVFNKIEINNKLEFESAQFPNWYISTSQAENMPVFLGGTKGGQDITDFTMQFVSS
B1: the Kd came out at 3.9 nM.

Broadly, the Kd is the equilibrium constant for the complex coming apart. A higher Kd goes with weaker binding.
